Laboratory results reported in the RNAGym collection of RNA variant scans (doi:10.1093/nar/gkz1192).
Read counts are not given, so values of variants with three or more changes are uncertain.

B1: CPEB3 Ribozyme (parent)
chain: UAACAGGGGGCCACAGCAGAAGCGUUCACGUCGCAGCCCCUGUCAGAUUCUGGUGAAUCUGCGAAUUCUGCUGUAUAUCUC

Variants of: B1
Assay: self-cleavage, relative activity (ratio to wild type); higher = more cleavage; in vitro, sequencing
Summary of the method: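 Relative activity compares each variant's cleaved/total read fraction with that of the unmutated ribozyme. To get these fractions, barcoded CPEB3 ribozyme libraries from rounds of error-prone PCR were transcribed with T7 RNA polymerase for 5 hours at 37°C and then given 15 min of DNase I treatment before EDTA was added. The RNAs were reverse transcribed with template switching and sequenced on Illumina, and DNA sequencing linked barcodes to variants. A minimum of 5 reads applied, and three batches were averaged.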

Variant | self-cleavage
CAACAGGGGGCCACAGCUGAAGCGUUCACGUCGCAGCCCCUAUCAGGUUCUGGUGAAUCUGCGAAUUCUGGUGUAUAUCUC | 0.14
CAACAGGGGGCCACAGCUGAAGCGUUCACGACGCAGCCCCUGUCAGAUUCUGGUGAAUCUGCGAAUUCUGCUGUAUAUCUC | 0.07
CAACAGGGGGCCACAGCUGAAGCGUUCACGUCGCAGCCCCUGUCAGAUUCUGGUGAAUCCGCGAAUUCUGCUGUAUAUGUC | 0.11
CAACAGGGGGCCACAGCUGAAGCGUUCACGUCGCAGCCCCUGUCAGAUUCUGGUGAAUCUGCGAAUUCCGCUGUACAUCUC | 0.31
CAACAGGGGGCCACAGCAGGAGCGUUCGCGUCGCUGCCCCUGCCAGAUUCUGGUGAAUCUGCGAAUUCUGCUGUAUAUCCC | 0.04
CAACAGGGGGCCACAGCAGGAGCGUUCACGUCGCGGCCCCUGUCAGAUUCUGGUGAACCUGCGAAUUCUGCUGUAUAUCUC | 0.81
CAACAGGGGGCCACAGCAGGAGCGUUCACGUCGCAGCCCCUGUCGGAUUCUGGCGAAUCUGCGAAUUCUGCUGUAUAUCUC | 0.26
CAACAGGGGGCCACAGCAGGAGCGUUCACGUCGCAGCCCCUGUCAGAUUCUGGUGAGUCUGCGAAUCCUGCUGUAUAUCCC | 1.13
CAACAGGGGGCCACAGCAGGAGCGUUCAUGUCGCAGCCCCUGUCAGAUUCAGGCGAAUCAGCGUAUUCUGCUGUAUAUCUC | 0.08
CAACAGGGGGCCACAGCAGGAGCGUUCACGUCGCAGCCCUUGUCAGAUUCUGGUGAAUCUGCGAAUUCUGCUGUAUAUCUC | 0.38
CAACAGGGGGCCACAGCAGGAGCGUUCACGUCGCAGCCCCUGUCAGAUUCUGGUGAAUCUGCGAAUUCUGCUAUAUAUCUC | 0.74
CAACAGGGGGCCACAGCAGGAGCGUUCACGUCGCAGCCCCAGUCAGAUUCUGGUGAAUCUGCGGAUUCUGCCGUAUAUAUC | 0.04
CAACAGGGGGCCACAGCAGGAGCGUUCACGUCGCAGCCCCUGUCAGACUCCGGUGAAUCUGCGAAUUCUGCUGUAUAACUC | 0.07
CAACAGGGGGCCACAGCAGGAGCGUUCACGUCGCAGCCCCUGUCAGAUUCUGGUGAAUCUGCGAAUACUGCCGUAUAUCUC | 0.61
CAACAGGGGGCCACAGCAGUAGCGUUCACGUCGCUGCCCCUGUCAGAUUCUGGUGAAUCUGCGAAUUCUGCUGUAUAUCUC | 0.22
CAACAGGGGGCCACAGCAGUAGCGUUCACGUCGCAGCCCCUGUCAGAUUCUGGUGUAUCCGCGAAUUCUGCUGUAUAUCCC | 0.21
CAACAGGGGGCCACAGCAGUAGUGUUCACGUCGCAGCCCCUGUCAGAUUCUGGUGUAGCUGCGAAUCCUGCUGUAUAUCUC | 0.06

Variant | self-cleavage
CAACAGGGGGCCACAGCAGUAGCGUUCACGUCGCAGCCCUUGUCAGAUUCUGGUGAAUCUGCGAAUUCGGCUGUAUAUCUC | 0.19
CAACAGGGGGCCACAGCAGUAGCAUUCACGUCGCAGCCCCAGUCGGAUUCCGGUGAAUCUGCGAAUUCUGCUGUAUAUCUC | 0.02
CAACAGGGGGCCACAGCAGUAGCGUUCACGUCGCAGCCCCAGUCAGACUCUGGUGAAUCUGCGAAUUCUGCUGAGUAUCUC | 0.13
CAACAGGGGGCCACAGCAGAGGCGUUCCCGUCGCAGCCCCUGUCAGAUUCUGGUGAAUCUGCGAAUUCUGCUUAAUAUCUC | 0.49
CAACAGGGGGCCACAGCAGAGGCGUUCGCGUCGCAGCCCCUGUCAGAUUCUGGUGAAUCUGCGAAUUCUGCUGUAUAUCUC | 0.35
CAACAGGGGGCCACAGCAGAGGCGUUCACGUCGCAGCCCCUGUCAGGUUCUGGUGAAUGUGCGAAUUCUGCUGUAUAUCUC | 0.23
CAACAGGGGGCCACAGCAGAGGCGUUCACGUCGCAGCCCCUGUCAGAUUCUGGUGAGUCUGCGAAUUCUGCUGUAUAUCCC | 0.64
CAACAGGGGGCCACAGCAGAGGCGUUCACGUCGCAGCCCCUGUCAGAUUCUGGUGAAUCUGCGUAUUCUGCUGUAUAUCUC | 0.38
CAACAGGGGGCCACAGCAGAGGCGUUCACGUCGCAGCUCCUGUCAGACUCUGGUUAAUCUGCGAAUUCUGCUGUAUAUCUC | 0.04
CAACAGGGGGCCACAGCAGAGGCGUUCACGUCGCAGCCCCUGUAAGAUUCUGGUGAAUCUGCGGAUUCUGCUGUAUACCUC | 0.14
CAACAGGGGGCCACAGCAGAGGCGUUCACACCGCAGCCCCUGUCAGAUUCUGGUGAAUCUGCGAAUUCUGCUGUAUAUCUC | 0.07
CAACAGGGGGCCACAGCAGAGGCGCUCACGUCGCAGCCCCUGUCAGAUUCUGGUGAAUCUGCGAAUUCUGCUGAAUAGCUC | 0.16
CAACAGGGGGCCACAGCAGAGGCGUUCACGUCGCAGCCCCAGCCAGAUUCUGGUGAGCCUUCGAAUUCUGCUGUAUAUCUC | 0.03
CAACAGGGGGCCACAGCAGAGGCGUUCACGUCGCAGCCCCUGUCAGACUCUGGUGAGUCUGCGGAUUCUGCUGUAUAUCUC | 0.16
CAACAGGGGGCCACAGCAGAUGCGUUCACGUCGCAGCCCCUGUCAGAUUCUGGUGGAUCUGCGAAUUCUGCUGUAUAUCUC | 0.12
CAACAGGGGGCCACAGCAGAUGCGUCCACGUCGCAGCCCCCCUCAGAUUCAGGUGAAUCUGCGAAUUCUGCUGUAUAUCUC | 0.06
CAACAGGGGGCCACAGCAGAUGCGUUCACGUCGCAGCCCCAGUCAGAUUCUGGUGAAUCUGCGAAUUCUGCUGUAUAUCUC | 0.48
